Out of some 370,000 compounds screened, about 150 (0.041%) were called active. Inconclusive means that the source gave no clear call. Such entries were picked first, then a sample of the others. Calls come from the whole dose curve; as a rule, active = well fitted inhibition curve with a large enough effect; inconclusive = small, poorly fitted or top-dose-only effect; inactive = flat fitted curve, though single readings scatter. Potencies of inconclusive entries are left out as doubtful fits.
What follows are compounds tested against Beta-lactamase (Escherichia coli (strain K12)) (UniProt P00811) (assay: qHTS Inhibitors of AmpC Beta-Lactamase (assay with detergent)). Settings: AmpC hydrolysis of nitrocefin, absorbance 480 nm, 0.01% Triton; activity change, negative = inhibition: at 114 µM (top of the series).
In short: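 AmpC (5.3 nM in the dispensed reagent) in 20 mM phosphate pH 7.0 with 0.01% (detergent screen) or 0.0001% Triton X-100 was preincubated with compounds for 15 min at room temperature. Nitrocefin was then added from an 800 uM solution, and hydrolysis was followed at 480 nm.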
Note: nearly all actives have a fitted effect of over 25% in size.
Potency is the fitted concentration of half-maximal effect; tags give direction and shape of the fitted curve.
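Throughout, for activity change, negative = inhibition: 0% = no-compound wells and -100% = no-enzyme wells.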

Chain of UniProt P00811 (P00811 whole entry, looked up): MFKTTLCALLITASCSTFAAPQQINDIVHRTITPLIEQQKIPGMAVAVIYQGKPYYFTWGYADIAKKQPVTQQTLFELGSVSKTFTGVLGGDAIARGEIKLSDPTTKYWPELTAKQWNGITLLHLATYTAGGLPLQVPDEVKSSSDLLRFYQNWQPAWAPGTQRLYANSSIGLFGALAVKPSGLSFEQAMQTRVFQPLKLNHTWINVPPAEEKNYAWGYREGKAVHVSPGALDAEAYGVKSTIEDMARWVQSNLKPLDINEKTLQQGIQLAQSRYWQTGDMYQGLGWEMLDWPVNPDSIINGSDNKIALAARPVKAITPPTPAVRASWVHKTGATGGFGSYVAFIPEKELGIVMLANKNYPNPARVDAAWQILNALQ

Compound	activity change, negative = inhibition	Potency
CC1Cc2ccccc2N1S(=O)(=O)c1cccc(C(=O)N2CCN(c3ncccn3)CC2)c1 (stereo not drawn)	inactive: 2.8%	–
COc1ccccc1NC(=O)c1ccc(S(=O)(=O)N2CCC(C)CC2)cc1	inactive: -7.06%	–
CC(=O)c1sc(NC(=O)c2c(-c3ccccc3)c(-c3ccccc3)nn(C)c2=O)nc1C	inactive: 14.6%	–
O=C(CN(C(=O)c1csnn1)c1cccc2c1CCCC2)NCc1ccc(F)cc1	–	inconclusive [inhibitor, full curve, poor fit]
O=C(Nc1ccncc1)c1cccc(F)c1	–	inconclusive [inhibitor, single point]
CN(C)S(=O)(=O)c1ccc(C(=O)N2CCCC2c2nc3ccccc3s2)cc1 (stereo not drawn)	inactive: -5.62%	–
O=S(=O)(NCc1ccc2c(c1)OCO2)c1ccc2c(c1)oc1ccccc12	–	inconclusive [inhibitor, full curve, poor fit]
Cc1c(Cl)c(C(=O)NC2CCCC2)nn1C	–	inconclusive [inhibitor, partial curve]
COC(=O)CCCCC1SCC2NC(=O)NC21O (stereo not drawn)	–	inconclusive [inhibitor, full curve, poor fit]
CC(=O)NC(CC(=O)OCc1ccc([N+](=O)[O-])cc1)c1ccccc1 (stereo not drawn)	–	inconclusive [inhibitor, full curve, poor fit]
Cc1ccccc1N(CC(=O)NC(C)(C)C)C(=O)c1ccc(-c2ccccc2)[nH]1	inactive: -3.71%	–
CCCCC(=O)NC(NC(=S)N1CCOCC1)C(Cl)(Cl)Cl (stereo not drawn)	inactive: -1.57%	–
C#CCOCCOCCOCCNc1nc(N2CCOCC2)nc(N2CCN(C(=O)Cn3cc(CC(C)O)nn3)CC2)n1 (stereo not drawn)	–	inconclusive [inhibitor, full curve, poor fit]
O=C(CN1C(=O)NC2(CCCCC2)C1=O)N1CCN(S(=O)(=O)c2cccc(F)c2)CC1	–	inconclusive [inhibitor, partial curve, poor fit]
Cc1cccc2sc(NNC(=O)c3cc(-c4cccs4)nc4ccccc34)nc12	–	inconclusive [inhibitor, full curve, poor fit]
Cc1cc(=O)n(Cc2ccc(F)cc2Cl)c2c1c(C)nn2C	–	inconclusive [inhibitor, partial curve, poor fit]
O=C(NCCCN1CCN(c2ccc(F)cc2)CC1)c1cc2c(Cl)nc3ccccc3c2s1	inactive: -5.51%	–
CCn1c(=O)c(C(=O)NNC(=O)c2cccc(Cl)c2)c(O)c2ccccc21	inactive: -4.51%	–
COc1ccc(-n2c(Cc3cccn3C)nnc2SCC(=O)NCc2ccccc2Cl)cc1	–	inconclusive [inhibitor, partial curve, poor fit]
Cc1ccc(S(=O)(=O)N2CCC(C(=O)OC(C)C(=O)N3CCOCC3)CC2)cc1 (stereo not drawn)	–	inconclusive [inhibitor, partial curve, poor fit]
COc1ccccc1C(=O)Nc1ccnn1C1CCN(CCC(C)c2ccc(C)o2)CC1 (stereo not drawn)	–	inconclusive [inhibitor, full curve, poor fit]
COc1ccc(NC(=O)C(=O)Nc2cccc3ccccc23)c(OC)c1	–	inconclusive [inhibitor, full curve]

Compound	activity change, negative = inhibition	Potency
CCCn1nnc(NC(=O)c2cccc(OCC(C)C)c2)n1	inactive: -9.82%	–
c1ccc(CCn2cnc3ccccc32)cc1	inactive: 3.85%	–
COc1ccc(CNCc2ccccc2[N+](=O)[O-])cc1OC	–	inconclusive [inhibitor, partial curve, poor fit]
O=C1C2C(C(=O)N1/N=C/c1ccco1)C1C=CC2C12CC2 (stereo not drawn)	inactive: 4.49%	–
COc1ccc(S(=O)(=O)Nc2ccc(F)c(F)c2)cc1C(=O)N1CCOCC1	–	inconclusive [inhibitor, full curve, poor fit]
Cn1cccc1C(=O)OCC(=O)Nc1cc(C(C)(C)C)nn1-c1ccccc1	–	inconclusive [inhibitor, full curve, poor fit]
CCOC(=O)C1CCCN(c2c(NCCN3CCCCC3C)c(=O)c2=O)C1 (stereo not drawn)	–	inconclusive [inhibitor, full curve, poor fit]
CCOC(=O)C(=CNc1cc(Cl)c(-c2ccco2)c(Cl)c1)C(=O)OCC	inactive: -2.91%	–
O=C(/C=C/c1ccc(F)cc1)NCCc1ccc2c(c1)OCCO2	–	inconclusive [inhibitor, full curve, poor fit]
N#Cc1cc(S(=O)(=O)N2CCOCC2)ccc1N1CCOCC1	inactive: 2%	–
O=S(=O)(NCC(c1cccnc1)N1CCN(c2ccccc2F)CC1)c1cccs1 (stereo not drawn)	–	inconclusive [inhibitor, partial curve, poor fit]
COc1ccc(C)cc1NC(=O)Nc1cc(C(=O)NCc2ccc(C)cc2)ccc1N1CCCC1	inactive: 3.5%	–
Cc1cc(-c2n[nH]c(=S)n2/N=C/c2cc([N+](=O)[O-])ccc2Cl)n[nH]1	–	inconclusive [inhibitor, full curve, poor fit]
Cc1ccc(-c2nn(-c3ccccc3)cc2/C=C/C(=O)Nc2nccs2)cc1	inactive: 4.83%	–
O=C(CN(CC1CCCO1)C(=O)CCC(=O)Nc1ccccn1)NCc1ccccc1 (stereo not drawn)	–	inconclusive [inhibitor, single point]
Cc1cccc(NC(=S)NCCc2ccc(Cl)cc2)c1C	–	inconclusive [inhibitor, full curve]
Cc1c(C(=O)NCC2CCCO2)oc2ccc(S(=O)(=O)N3CCCCC3)cc12 (stereo not drawn)	–	inconclusive [inhibitor, full curve, poor fit]
O=C(Oc1cccc2cccnc12)c1ccco1	inactive: -1.89%	–
CCN(CC)S(=O)(=O)c1cc(C(=O)OCC(=O)Nc2cccc(Br)c2)ccc1F	–	inconclusive [inhibitor, single point]
CNCC(O)c1ccc(O)cc1 (stereo not drawn)	–	inconclusive [inhibitor, partial curve]
Cc1ccc(S(=O)(=O)NN=C2CCN(Cc3ccccc3)CC2)cc1	–	inconclusive [inhibitor, partial curve, poor fit]

From PubChem BioAssay AID485294 (National Center for Advancing Translational Sciences (NCATS), 2010)
